The IC50 comes from the fitted curve, where viability falls to half of the control; a fit beyond the top or the lowest dose is shown as a bound at that dose. For AUC the same curve is integrated over the 256-fold range of doses and scaled to a fraction; values near 1 show little effect. Any top dose called inferred was derived from the fitted curves, not read from the paper. A value given as a limit tells only on which side of the number the result lay.

Compound in the assay: N.N.[Cl][Pt][Cl] [Cisplatin]
The experiment in a line: Viability of human cancer cell lines after 72 h of drug (GDSC screen). The settings on record: top dose inferred. On the procedure: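 Human cancer cell lines in 384-well plates, medium with 10% serum, drug for 72 h over a 256-fold dose range (nine 2-fold or five 4-fold steps up to the top dose). Adherent lines were fixed and stained with the nucleic acid dye Syto60, suspension lines read with resazurin; signal relative to control wells, capped at 0 and 100%. One two-parameter sigmoid per drug and line, fitted in a mixed model over all curves with the slope shared within a line.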
Consider “NCI-H929 (myeloma, suspension, top dose 10 µM)”, for which the AUC is 0.932 and the IC50 was over 10 µM.

For the cell line “NCI-H1048 (small cell lung carcinoma, adherent, top dose 10 µM)”, the AUC was found to be 0.896 and the half-inhibitory concentration (IC50) was over 10 µM.

For “NCI-H1092 (small cell lung carcinoma, suspension, top dose 10 µM)”, the AUC worked out at 0.989 and the IC50 is over 10 µM.

For the cell line “NCI-H1105 (small cell lung carcinoma, suspension, top dose 10 µM)”, the AUC was 0.809 and the IC50 turned out to be 4.12 µM.

As for “NCI-H1155 (large cell lung carcinoma, suspension, top dose 10 µM)”, the AUC came to 0.871 and the 50% inhibitory concentration (IC50) stood at 6.66 µM.

Turning to “NCI-H1304 (small cell lung carcinoma, suspension, top dose 10 µM)”, the AUC was determined as 0.962 and the concentration for half-maximal inhibition (IC50) was over 10 µM.

In the case of “NCI-H1341 (small cell lung carcinoma, suspension, top dose 10 µM)”, the AUC was determined as 0.844 and the 50% inhibitory concentration (IC50) came out at 5.65 µM.

For the cell line “NCI-H1395 (lung adenocarcinoma, adherent, top dose 10 µM)”, the AUC worked out at 0.921 and the IC50 was over 10 µM.

In the case of “NCI-H1417 (small cell lung carcinoma, suspension, top dose 6 µM)”, the AUC turned out to be 0.722 and the IC50 came out at 1.82 µM.

Consider “NCI-H1435 (lung adenocarcinoma, semi-adherent, top dose 10 µM)”, for which the AUC stood at 0.993 and the IC50 is over 10 µM.

Regarding “NCI-H1436 (small cell lung carcinoma, suspension, top dose 6 µM)”, the AUC amounted to 0.985 and the IC50 is over 6 µM.

With “NCI-H1437 (lung adenocarcinoma, adherent, top dose 10 µM)”, the AUC was determined as 0.905 and the IC50 is over 10 µM.

“NCI-H1563 (lung adenocarcinoma, adherent, top dose 10 µM)”: the AUC turned out to be 0.921 and the IC50 is over 10 µM.

Consider “NCI-H1568 (lung adenocarcinoma, adherent, top dose 10 µM)”, for which the AUC turned out to be 0.956 and the IC50 is over 10 µM.

Consider “NCI-H1581 (large cell lung carcinoma, semi-adherent, top dose 10 µM)”, for which the AUC turned out to be 0.866 and the IC50 turned out to be 7.75 µM.

On to “NCI-H1623 (lung adenocarcinoma, adherent, top dose 10 µM)”, for which the AUC was determined as 0.945 and the 50% inhibitory concentration (IC50) is over 10 µM.

“NCI-H1648 (lung adenocarcinoma, adherent, top dose 10 µM)”: the AUC turned out to be 0.933 and the IC50 is over 10 µM.

With “NCI-H1651 (lung adenocarcinoma, adherent, top dose 10 µM)”, the AUC worked out at 0.842 and the concentration for half-maximal inhibition (IC50) stood at 7.86 µM.

Consider “NCI-H1666 (lung adenocarcinoma, semi-adherent, top dose 10 µM)”, for which the AUC was determined as 0.92 and the IC50 was over 10 µM.

Turning to “NCI-H1688 (small cell lung carcinoma, adherent, top dose 10 µM)”, the AUC worked out at 0.921 and the concentration for half-maximal inhibition (IC50) was over 10 µM.

For “NCI-H1693 (lung adenocarcinoma, adherent, top dose 10 µM)”, the AUC worked out at 0.926 and the half-maximal inhibitory concentration (IC50) was over 10 µM.

As for “NCI-H1694 (small cell lung carcinoma, suspension, top dose 10 µM)”, the AUC came out at 0.879 and the concentration for half-maximal inhibition (IC50) was over 10 µM.

Regarding “NCI-H1703 (lung adenocarcinoma, adherent, top dose 10 µM)”, the AUC is 0.944 and the 50% inhibitory concentration (IC50) is over 10 µM.

In the case of “NCI-H1734 (lung adenocarcinoma, adherent, top dose 10 µM)”, the AUC amounted to 0.838 and the half-inhibitory concentration (IC50) is 7.74 µM.

Regarding “NCI-H1755 (lung adenocarcinoma, adherent, top dose 10 µM)”, the AUC worked out at 0.964 and the 50% inhibitory concentration (IC50) is over 10 µM.

In the case of “NCI-H1770 (non-small cell lung carcinoma, suspension, top dose 10 µM)”, the AUC worked out at 0.99 and the 50% inhibitory concentration (IC50) was over 10 µM.

In the case of “NCI-H1781 (lung adenocarcinoma, adherent, top dose 10 µM)”, the AUC turned out to be 0.805 and the concentration for half-maximal inhibition (IC50) stood at 5.05 µM.

For “NCI-H1792 (lung adenocarcinoma, adherent, top dose 10 µM)”, the AUC is 0.902 and the half-maximal inhibitory concentration (IC50) was over 10 µM.

For “NCI-H1836 (small cell lung carcinoma, suspension, top dose 10 µM)”, the AUC is 0.983 and the IC50 was over 10 µM.

“NCI-H1838 (lung adenocarcinoma, adherent, top dose 10 µM)”: the AUC came out at 0.982 and the IC50 is over 10 µM.

On to “NCI-H1869 (lung squamous cell carcinoma, adherent, top dose 10 µM)”, for which the AUC turned out to be 0.955 and the IC50 was over 10 µM.

With “NCI-H1876 (small cell lung carcinoma, adherent, top dose 10 µM)”, the AUC was found to be 0.574 and the 50% inhibitory concentration (IC50) stood at 0.999 µM.

Regarding “NCI-H1944 (lung adenocarcinoma, adherent, top dose 10 µM)”, the AUC was found to be 0.89 and the IC50 was over 10 µM.

For “NCI-H1963 (small cell lung carcinoma, suspension, top dose 10 µM)”, the AUC turned out to be 0.961 and the 50% inhibitory concentration (IC50) was over 10 µM.

“NCI-H1975 (lung adenocarcinoma, adherent, top dose 10 µM)”: the AUC amounted to 0.935 and the IC50 was over 10 µM.

On to “NCI-H1993 (lung adenocarcinoma, adherent, top dose 10 µM)”, for which the AUC turned out to be 0.982 and the IC50 was over 10 µM.

Turning to “NCI-H2009 (lung adenocarcinoma, adherent, top dose 10 µM)”, the AUC is 0.953 and the concentration for half-maximal inhibition (IC50) is over 10 µM.

As for “NCI-H2023 (lung adenocarcinoma, adherent, top dose 10 µM)”, the AUC came to 0.809 and the IC50 came to 6.88 µM.

For the cell line “NCI-H2029 (small cell lung carcinoma, adherent, top dose 10 µM)”, the AUC was found to be 0.992 and the concentration for half-maximal inhibition (IC50) is over 10 µM.

Turning to “NCI-H2052 (mesothelioma, adherent, top dose 10 µM)”, the AUC was 0.963 and the 50% inhibitory concentration (IC50) is over 10 µM.

As to “NCI-H2081 (small cell lung carcinoma, suspension, top dose 6 µM)”, the AUC was determined as 0.913 and the IC50 was over 6 µM.

Take “NCI-H2087 (lung adenocarcinoma, semi-adherent, top dose 10 µM)”: the AUC is 0.899 and the concentration for half-maximal inhibition (IC50) was over 10 µM.

In the case of “NCI-H2110 (non-small cell lung carcinoma, adherent, top dose 10 µM)”, the AUC was 0.835 and the IC50 worked out at 6.78 µM.

For the cell line “NCI-H2122 (lung adenocarcinoma, adherent, top dose 10 µM)”, the AUC was 0.898 and the 50% inhibitory concentration (IC50) was over 10 µM.

Consider “NCI-H2135 (non-small cell lung carcinoma, adherent, top dose 10 µM)”, for which the AUC amounted to 0.986 and the half-maximal inhibitory concentration (IC50) was over 10 µM.

On to “NCI-H2141 (small cell lung carcinoma, suspension, top dose 10 µM)”, for which the AUC turned out to be 0.968 and the IC50 is over 10 µM.

Turning to “NCI-H2172 (non-small cell lung carcinoma, adherent, top dose 10 µM)”, the AUC was determined as 0.95 and the IC50 was over 10 µM.

Consider “NCI-H2227 (small cell lung carcinoma, semi-adherent, top dose 10 µM)”, for which the AUC is 0.887 and the 50% inhibitory concentration (IC50) was over 10 µM.

Turning to “NCI-H2291 (lung adenocarcinoma, adherent, top dose 10 µM)”, the AUC was 0.977 and the half-inhibitory concentration (IC50) is over 10 µM.

Regarding “NCI-H2342 (lung adenocarcinoma, adherent, top dose 10 µM)”, the AUC came to 0.939 and the IC50 was over 10 µM.

In the case of “NCI-H2347 (lung adenocarcinoma, adherent, top dose 10 µM)”, the AUC worked out at 0.962 and the concentration for half-maximal inhibition (IC50) was over 10 µM.

Turning to “NCI-H2405 (lung adenocarcinoma, adherent, top dose 10 µM)”, the AUC is 0.914 and the IC50 was over 10 µM.

“NCI-H2444 (non-small cell lung carcinoma, adherent, top dose 10 µM)”: the AUC turned out to be 0.986 and the half-inhibitory concentration (IC50) is over 10 µM.

On to “NCI-H2452 (mesothelioma, adherent, top dose 10 µM)”, for which the AUC is 0.968 and the half-maximal inhibitory concentration (IC50) is over 10 µM.

For “NCI-H3122 (lung adenocarcinoma, adherent, top dose 10 µM)”, the AUC came to 0.943 and the IC50 was over 10 µM.

“NCI-N87 (stomach, adherent, top dose 10 µM)”: the AUC came out at 0.869 and the IC50 is over 10 µM.

For “NCI-SNU-1 (stomach, suspension, top dose 10 µM)”, the AUC was determined as 0.967 and the IC50 is over 10 µM.

Turning to “NCI-SNU-5 (stomach, suspension, top dose 10 µM)”, the AUC turned out to be 0.881 and the IC50 was over 10 µM.

Turning to “NCI-SNU-16 (stomach, suspension, top dose 10 µM)”, the AUC came out at 0.977 and the 50% inhibitory concentration (IC50) is over 10 µM.

For the cell line NEC8 (testis, adherent, top dose 10 µM), the AUC is 0.756 and the IC50 stood at 2.96 µM.

On to “NH-12 (neuroblastoma, adherent, top dose 10 µM)”, for which the AUC worked out at 0.864 and the IC50 was over 10 µM.

In general, IC50 refers to the concentration that gives 50% inhibition.

The values above are taken from the supplement of paper PMC4967469.
